Where a name gives a salt, the structure may show the parent alone.
Experiments:
Format in all cases: biochemical
recombinant PRL-1 = target: T1, recombinant PRL-1 (Homo sapiens, UniProt Q93096); test: In vitro phosphatase assay (DiFMUP hydrolysis), PRL-1; note: test concentration or dose not given here
T1 construct: 6xHis (N, cleaved yes); made in house; host or cells: E. coli One Shot BL21 Star
T1 sequence (Q93096 1-173): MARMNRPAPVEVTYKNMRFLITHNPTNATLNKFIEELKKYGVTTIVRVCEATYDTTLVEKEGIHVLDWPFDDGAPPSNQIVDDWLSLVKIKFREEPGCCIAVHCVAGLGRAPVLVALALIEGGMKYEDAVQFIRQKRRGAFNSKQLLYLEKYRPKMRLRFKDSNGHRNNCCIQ

recombinant PRL-2 = target: T2, recombinant PRL-2 (Homo sapiens, UniProt Q12974); test: In vitro phosphatase assay (DiFMUP hydrolysis), PRL-2;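 note: PRL-2 activity read as DiFMUP hydrolysis after 20 min at room temperature with drug, enzyme first pre-reduced at 4 °C for 20 min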
T2 construct: 6xHis (N, cleaved yes); made in house; host or cells: E. coli One Shot BL21 Star
T2 sequence (Q12974 1-167): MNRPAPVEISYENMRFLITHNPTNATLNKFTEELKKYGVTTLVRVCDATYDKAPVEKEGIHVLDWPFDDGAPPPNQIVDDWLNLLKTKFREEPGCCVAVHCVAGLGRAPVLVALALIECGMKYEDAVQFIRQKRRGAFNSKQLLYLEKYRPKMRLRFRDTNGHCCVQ

recombinant PRL-3 = target: T3, recombinant PRL-3 (Homo sapiens, UniProt O75365); test: In vitro phosphatase assay (DiFMUP hydrolysis), PRL-3; note: test concentration or dose not given here
T3 construct: 6xHis (N, cleaved yes); made in house; host or cells: E. coli One Shot BL21 Star
T3 sequence (O75365 whole entry): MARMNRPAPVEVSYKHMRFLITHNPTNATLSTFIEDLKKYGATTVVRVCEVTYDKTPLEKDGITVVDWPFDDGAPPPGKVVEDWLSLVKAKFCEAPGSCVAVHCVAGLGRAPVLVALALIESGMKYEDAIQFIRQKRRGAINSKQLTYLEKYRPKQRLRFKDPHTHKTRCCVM

| SMILES | % Phosphatase Activity (compared to DMSO) PRL-1 (recombinant PRL-1) | % Phosphatase Activity (compared to DMSO) PRL-2 (recombinant PRL-2) | % Phosphatase Activity (compared to DMSO) PRL-3 (recombinant PRL-3) |
| --- | --- | --- | --- |
| Clc1ccc2c(c1)CCc1cccnc1C2=C1CCNCC1 [Desloratadine] | 110% | 124% | 100% |
| CCN(Cc1ccncc1)C(=O)C(CO)c1ccccc1 (stereo not drawn) [Tropicamide] |  | 92% |  |
| CN1CCC[C@@H]1CCO[C@](C)(c1ccccc1)c1ccc(Cl)cc1 [Clemastine Fumarate] | 91% | 119% | 112% |
| Clc1ccc(CSC(Cn2ccnc2)c2ccc(Cl)cc2Cl)cc1 (stereo not drawn) [Sulconazole Nitrate] | 97% | 110% | 79% |
| Cc1ccccc1C(OCCN(C)C)c1ccccc1 (stereo not drawn) [Orphenadrine Citrate] | 92% | 106% | 97% |
| CCN(CC)CCOC(=O)C1(C2CCCCC2)CCCCC1 [Dicyclomine HCl] | 87% | 90% |  |
| CCCCCCCCCCCCCCCC[n+]1ccccc1 [Cetylpyridinium Chloride] | 97% | 91% | 85% |
| CC(C)(C)c1ccc(C(=O)CCCN2CCC(OC(c3ccccc3)c3ccccc3)CC2)cc1 [Ebastine] | 115% | 128% | 97% |
| CC(C)(C)CC(C)(C)c1ccc(OCCOCC[N+](C)(C)Cc2ccccc2)cc1 [Benzethonium Chloride] | 99% | 103% | 80% |
| Br.CN1[C@@H]2CC[C@H]1C[C@@H](OC(=O)C(O)c1ccccc1)C2 (stereo partly drawn) [Homatropine Bromide] | 109% | 119% | 83% |

— article PMC8119466, “A screen of FDA-approved drugs identifies inhibitors of protein tyrosine phosphatase 4A3 (PTP4A3 or PRL-3)” (Scientific Reports, 2021)
